Reference: ChEMBL document CHEMBL1156829
The full ranking holds about 5,400 compounds; the median of “IFI” is about 2, and the highest 2% start at about 22. Some of the results follow.

assay: NOVARTIS: Inhibition Frequency Index (IFI) - the number of HTS assays where a compound showed > 50% inhibition/induction, expressed as a percentage of the number of assays in which the compound was tested.; type: functional

| Compound | IFI |
| --- | --- |
| CCC(CO)Nc1nccnc1-c1ccccc1Oc1ccccc1 (stereo not drawn) | 0% |
| COc1cc(NCCCC(C)Nc2ccnc3cc4ccccc4cc23)c2ncccc2c1 (stereo not drawn) | 0% |
| CC1=NNC(=O)C1C(c1ccc(Cl)cc1Cl)C1C(=O)NN=C1C (stereo not drawn) | 0% |
| O=C1C2CN(C(=O)Nc3ccccc3)C(c3ccc(Cl)cc3)C2C(=O)N1c1ccccc1 (stereo not drawn) | 0% |
| C[C@@H]1CCC[C@@H](C[C@H]2Cc3cc(O)cc(O)c3C(=O)O2)O1 | 1.79% |
| Cc1ccc(Cn2c(N3CCC(C(=O)NCc4ccc(F)cc4)CC3)nc3ccccc32)cc1 | 2.7% |
| COc1ccc2c(c1)N(C)/C(=C/c1cccc[n+]1C)S2 | 15.4% |
| Cc1noc(C)c1S(=O)(=O)N(CC(C)C)C(C(=O)NC(CN1CCCC1)c1ccccc1)c1ccccc1 (stereo not drawn) | 1.98% |
| CCOC(=O)COc1ccc(C2NC(=S)NC(C)=C2C(C)=O)cc1OC (stereo not drawn) | 0% |
| O=S(=O)(/C=C/c1ccccc1)NCCCCNc1ccnc2cc(Cl)ccc12 | 6.41% |
| CCCOc1ccc2c(c1)C(=NN=C(N)N)c1cc(OCCC)ccc1-2 | 7.69% |
| CN(C)c1ccc(-c2cc(-c3ccccc3)[s+]c(-c3ccccc3)c2)cc1 | 31.4% |
| Cc1cccn2c(NCc3ccccc3)c(-c3ccccc3OC(=O)CCCCl)nc12 | 3.81% |
| COc1ccc(C(NC(=O)c2cccnc2)c2cc(Cl)c3cccnc3c2O)cc1 (stereo not drawn) | 7.69% |
| CC1CCCN(C(=O)C2CCN(Cc3ccccn3)CC2)C1 (stereo not drawn) | 0% |
| Cc1ccc(C(=O)c2c(C)oc3ccc(O)cc23)cc1 | 0% |
| O=S(=O)(c1ccc(Br)s1)N1CCN(c2ccccc2)CC1 | 0.794% |
| C1CCC(CN2CCc3nc(N4CCCCC4)sc3C2)CC1 | 5.56% |
| COc1cccc(C2(NC(=O)CCn3ccnc3-c3ccccc3)CCCC2)c1 | 0% |
| CC[n+]1c(/C=C/N(C)c2ccccc2)sc(-c2ccccc2)c1-c1ccccc1 | 14.3% |
| O=C(NCCCCNc1ccnc2cc(Cl)ccc12)c1ccc(Br)cc1 | 3.03% |
| FC(F)(F)c1ccc(Nc2nnnc3ccccc23)cc1 | 2.44% |
| COC(=O)C1=CNC=C(C(=O)OC)C1c1cc(OC)c(OC)c(OC)c1 | 2.38% |
| O=C(NC1CC1)C1CCN(c2cccc3c2C(=O)N(C2CCCCCCC2)C3=O)CC1 | 5.94% |
| CCOC(=O)c1cnc2ccccc2c1Nc1ccc(OC)c(OC)c1 | 14.3% |
| CCOC(=O)c1c(C)n(-c2ccccc2)c2ccc(OC(=O)c3ccccc3NC(=O)C(C)C)cc12 | 0% |

| Compound | IFI |
| --- | --- |
| Clc1ccc(-c2cn3c([n+]2-c2ccccc2)CCC3)cc1 | 0% |
| CCOc1ccc2nc(C)cc(Nc3ccc(N(C)C)cc3)c2c1 | 0% |
| Cc1cccc(C2Sc3ccccc3N=C3c4ccccc4C(=O)C32)c1 (stereo not drawn) | 0% |
| N#Cc1cccc(/C=C/C(=O)O)c1 | 0.952% |
| Cc1nc2cc(-c3ccc(I)cc3)nn2c(O)c1C | 0% |
| O=C(c1ccncc1)N1CCN(Cc2ccc3c(c2)OCO3)CC1 | 0% |
| COc1ccccc1C(NC(=O)c1cc(OC)c(OC)c(OC)c1)c1cc(Cl)c2cccnc2c1O (stereo not drawn) | 4.17% |
| CCc1ccc2c(c1)C(c1ccncc1)=NNC(c1ccncc1)=N2 | 1.85% |
| COCCNC(=S)N1CCN(S(=O)(=O)c2ccc([N+](=O)[O-])cc2)CC1 | 0% |
| CC(C)NCC(O)Cn1c2ccc(Br)cc2c2cc(Br)ccc21 (stereo not drawn) | 3.19% |
| C(#Cc1ccccc1)C[N+]1(CCOc2ccccc2)CCCCC1 | 5.56% |
| CC(C)NC(=O)N1CCN(C(=O)C(Cc2c[nH]c3ccccc23)NC(=O)Nc2cccc(C#N)c2)CC1C (stereo not drawn) | 1.83% |
| Cc1cccc(C)c1N(CC(=O)NCc1ccco1)S(C)(=O)=O | 0% |
| COc1ccccc1N1CCN(C(=O)CCCCSc2nnc3c4cc(F)ccc4n(Cc4ccc(F)cc4)c3n2)CC1 | 0.909% |
| Oc1c(C(Nc2ccccn2)c2ccc(Cl)cc2Cl)ccc2cccnc12 (stereo not drawn) | 13.4% |
| Cc1ccc(Nc2nc(NCc3ccccc3)c3ccccc3n2)cc1 | 0% |
| CCCCCCCCN[C@@H](C)[C@@H](O)c1ccc(SC(C)C)cc1 | 1.35% |
| Cc1nc2ccccc2c(=O)n1NC(=O)c1cccc([N+](=O)[O-])c1 | 1.05% |
| Cc1nccn1CC(C)C(=O)N1CCCC(n2nc(-c3cccs3)ccc2=O)C1 (stereo not drawn) | 0% |
| CCN(CC)c1ccc(C=Cc2cc[n+](Cc3ccc(F)cc3)cc2)cc1 | 16.8% |
| O=C(Cc1cccnc1)N1CCC(Oc2ccncc2)CC1 | 5.56% |
| O=C1c2cccc(N3CCCC(C(=O)N4CCCCC4c4cccnc4)C3)c2C(=O)N1Cc1ccc(C(F)(F)F)cc1 (stereo not drawn) | 6% |
| Cn1c(=O)c2c(nc3n2CC(O)CN3c2ccccc2)n(C)c1=O (stereo not drawn) | 2.41% |
| CN(C)CCCNc1ncnc2c1[nH]c1ccc(F)cc12 | 5.56% |
| Cc1ccc(N2C(=O)c3sc4nnc(C)c(=O)n4c3C2=O)cc1 | 0% |
| CCC(CC)=NNC(=O)C(=O)NC1CCCCC1 | 0% |

| Compound | IFI |
| --- | --- |
| COc1cc(NC(C)CCCN(Cc2ccc(OC)c(OC)c2)C(=O)CC(C)CC(C)(C)C)c2ncccc2c1 (stereo not drawn) | 3.64% |
| CCOC(=O)c1c(C)n(-c2ccccc2)c2ccc(O)cc12 | 2.54% |
| Brc1cccc(CNC2CCN(CCc3ccccc3)CC2)c1 | 2.36% |
| CCCCNC(=O)c1ccc2c(c1)N=C(c1cccc(OCC)c1)N(CCCN1CCCC1=O)C2 | 1.24% |
| CCN(CC)CCCC(C)Nc1nc(/C=C/c2cc(OC)c(OC)cc2Cl)nc2cc(Cl)ccc12 (stereo not drawn) | 0% |
| COc1ccc(NC(=O)c2cc3cc(C4(O)CCN(CC5CC=CCC5)CC4)ccc3o2)cc1 (stereo not drawn) | 2.54% |
| Cc1cc(N2CCCC2)nc2ccc(NC(=S)NCCCN3CCN(Cc4ccccc4)CC3)cc12 | 11.8% |
| CCOC(=O)C(=O)N1c2ccc(OC)cc2-c2c(ssc2=S)C1(C)C | 0% |
| COc1ccc(-c2noc(N3CCc4ccccc4C3)n2)cc1 | 0% |
| O=C(NC(CN1CCCC1)c1ccccc1)C1CCCCN1S(=O)(=O)c1ccccc1 (stereo not drawn) | 2.91% |
| Cc1onc(-c2ccccc2Cl)c1C(=O)Nc1cc(Cl)ccc1Cl | 1.15% |
| CCCCCOC(=O)C1=C(C)NC2=C(C(=O)CC(C)(C)C2)C1c1ccncc1 (stereo not drawn) | 2.38% |
| Cc1nc(-c2cnccc2C(F)(F)F)sc1C(=O)NN | 0% |
| CCOC(=O)c1cnc(SCC(=O)Nc2cc(C)ccc2C)nc1N | 0% |
| Cc1csc(NC(=O)C2c3ccccc3C(=O)N(CC(C)C)C2c2cccs2)n1 (stereo not drawn) | 3.03% |
| CCC(C(=O)N1CCN(Cc2ccccc2)CC1)c1ccccc1 (stereo not drawn) | 1.61% |
| CCOC(=O)CCC(=O)N(C)CCCNc1ccnc2cc(Cl)ccc12 | 2.75% |
| Fc1ccc(CSc2ccc3nnc(-c4cccnc4)n3n2)cc1 | 0% |
| CCN(CC)c1ccc(NC(=O)c2cccs2)cc1 | 7.09% |
| c1ccc(C2=NN(c3ccccc3)C(c3ccc4c(c3)OCO4)N2c2ccc(N3CCOCC3)cc2)cc1 (stereo not drawn) | 23.1% |
| CCOC(=O)C1CCN(C(=O)c2c(C)oc3c2C(=O)c2ccccc2C3=O)CC1 | 7.69% |
| CC(=O)N(C1=C(N2CCOCC2)C(=O)c2ccccc2C1=O)c1cc(C)cc(C)c1 | 7.14% |
| O=C(Nc1ccc(-c2cnc(-c3ccc(NC(=O)c4cccc([N+](=O)[O-])c4)cc3)nc2)cc1)c1cccc([N+](=O)[O-])c1 | 7.14% |
| CN1/C(=C/c2cccc[n+]2C)Sc2ccccc21 | 15.4% |
| CCC(=O)N1CCOc2c(cc(-c3csc4ccccc34)cc2OCCc2ccccn2)C1 | 0.826% |
| CSc1ccc(NC(=O)N2CCCn3cccc3C2c2ccc(C(F)(F)F)cc2)cc1 (stereo not drawn) | 2.83% |

| Compound | IFI |
| --- | --- |
| CCOC(=O)C1=C(c2ccccc2)N=c2sc(=Cc3cc(C)n(-c4ccc(F)cc4)c3C)c(=O)n2C1c1cccc(OC)c1OC (stereo not drawn) | 2.41% |
| c1ccc2cc3c(NCCCN4CCOCC4)ccnc3cc2c1 | 12.7% |
| CCCN1CCC(N2C[C@@H](NCc3cc(C)ccc3C)C[C@H]2C(=O)NCCc2ccc3c(c2)OCO3)CC1 | 6.25% |
| CCOC(=O)c1c(N)n(-c2ccc(CC)cc2)c2nc3ccccc3nc12 | 0% |
| O=C(C1CCCCN1)N1CC(c2ccccc2)c2ccccc2C1CN1CCCCC1 (stereo not drawn) | 8.57% |
| Oc1cccc(-c2cncc(-c3cccnc3)n2)c1 | 7.69% |
| N#Cc1ccc(-c2cnc(N)c(-c3ccc(C(N)=O)cc3)n2)cc1 | 0% |
| CCN(CC)CCCNc1ccnc2cc3ccccc3cc12 | 4.84% |
| FC(F)(F)c1cccc(NC(=S)N2CCCC2c2ccncc2)c1 (stereo not drawn) | 1.79% |
| CCCOC(=O)C1=C(C)NC2=C(C(=O)CC(c3ccc(Cl)cc3)C2)C1c1ccccc1F (stereo not drawn) | 3.53% |
| CCOC(=O)c1cnc2c(Cl)cccc2c1Nc1cccc(C(C)=O)c1 | 3.28% |
| CC1CCCCN1CC(=O)N1CCN(C(=O)CN2CCCCC2C)CC1.CC=O (stereo not drawn) | 3.7% |
| COc1cc(NCc2cnc(N)nc2N)cc(OC)c1 | 0.8% |
| Cc1ccc(Nc2nc(N)c3ccccc3n2)cc1Cl | 7.69% |
| C/C=C/[P+](c1ccccc1)(c1ccccc1)c1ccccc1 | 11.8% |
| CCCN1CCC(N2C[C@@H](NC3CCN(CCc4ccccc4)CC3)C[C@H]2C(=O)NCCc2ccc3c(c2)OCO3)CC1 | 1.98% |
| CCc1ccc2c(c1)C1(NN=C(c3ccc(C)cc3)S1)C(=O)N2 (stereo not drawn) | 9.3% |
| CCNC(=O)NS(=O)(=O)c1cnccc1Sc1cccc(C)c1 | 0% |
| Oc1ccc(Nc2ccnc3cc(Cl)ccc23)cc1 | 1.32% |
| c1ccc(-c2nc(NCCCn3ccnc3)cc(-c3ccncc3)n2)cc1 | 0% |
| Cn1cc([N+](=O)[O-])c(C(=O)NN=Cc2c[nH]c3ccccc23)n1 | 6.77% |
| COc1ccc(/C=C/C(=O)Nc2ccc3nc(N4CCN(C)CC4)cc(C)c3c2)cc1OC | 8.33% |
| CCN1/C(=C\C=C\c2n(CC)c3ccc(C#N)cc3[n+]2CC)Oc2ccc(-c3ccccc3)cc21 | 10.5% |
| Cn1cnc2cc(OC3CCN(Cc4ccco4)CC3)ccc21 | 2.78% |
| CCOC(=O)C1=C(C)NC2=C(C(=O)C(C(=O)OCC)C(c3ccccc3OC)C2)C1c1sccc1C (stereo not drawn) | 3.49% |
